Here are results for 195 variants from a collection of fitness landscapes (doi:10.1016/j.celrep.2020.107928).

Whole data set: some 81,000 sequences, median “one-hybrid fitness for binding NBS DNA” near -0.1, cut for the highest 2% near 0.36. The list shows a part of the results.

B1: Caulobacter ParB omega fusion; a variant is named by its letters at X, in order, B8GW30 (parent)
chain: MESVVVGEPGMSEGRRGLGRGLSALLGEVDAAPAQAPGEQLGGSREAPIEILQRNPDQPRRTFREEDLEDLSNSIREKGVLQPILVRPSPDTAGEYQIVAGERAWRAAQRAGLKTVPIMVRELDDLAVLEIGIIENVQRADLNVLEEALSYKVLMEKFERTQENIAQTIGKSXSHVANXMRLLXLPDEVQSYLVSGELTAXHARAIAAAADPVALAKQIIEGGLSVRETEALARKAPNLSAGKSKGGRPPRVKDTDTQALESDLSSVLGLDVSIDHRGSTGTLTITYATLEQLDDLCNRLTRGI

The variants in the assay derive from B1. Description: one-hybrid fitness for binding NBS DNA (the Noc-binding site; scaled: cognate 1, non-cognate 0); higher = stronger binding. The following applies: with NBS DNA site. The method in brief: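 On M9-minus-histidine containing 0.1 mM IPTG and 5 mM 3-AT, E. coli USO cells with a HIS3 reporter, site 19 bp from the promoter, grew 48 hours at 37°C to select Caulobacter ParB libraries randomised at four specificity codons. Plasmids from before and after were Illumina-sequenced, with three replicate libraries pooled and variants under 10 reads left out. Fitness is the log change in variant-to-wild-type read ratio, rescaled against cognate and non-cognate.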
FCTT: the “one-hybrid fitness for binding NBS DNA” value was not above 0.2.
The same measure for CAKV: not above 0.2; for HQKG: not above 0.2.
The same measure for SALC: not above 0.2; for QTYQ: not above 0.2; for IYEM: not above 0.2.
For RWYY the value was not above 0.2; for WYMC, not above 0.2.
Turning to RATM, the “one-hybrid fitness for binding NBS DNA” value is not above 0.2.
For DPDG the value was not above 0.2; for QKTE, not above 0.2; for RPSK, not above 0.2.
For QAYK the value was not above 0.2.
For AYET the value was not above 0.2; for CNIS, not above 0.2; for TPTP, not above 0.2.
As to VHWA, the “one-hybrid fitness for binding NBS DNA” value is not above 0.2.
For TGKY the value was not above 0.2; for QCHV, 0.214; for EQKS, not above 0.2.
With KSKK, the “one-hybrid fitness for binding NBS DNA” value is not above 0.2.
The same measure for LRTP: not above 0.2; for LFKF: not above 0.2.
The same measure for MYNG: not above 0.2; for KASR: not above 0.2; for SEAW: not above 0.2.
The same measure for LCIN: not above 0.2; for DAHM: not above 0.2; for RDNQ: not above 0.2.
WHKS: the “one-hybrid fitness for binding NBS DNA” value was not above 0.2.
On to THNK, for which the “one-hybrid fitness for binding NBS DNA” value is not above 0.2.
For the variant VDKT, the “one-hybrid fitness for binding NBS DNA” value was not above 0.2.
The same measure for LGSA: not above 0.2; for TLQG: not above 0.2; for RCVF: not above 0.2.
The same measure for THMN: not above 0.2; for DRQW: not above 0.2.
Regarding YKKR, the “one-hybrid fitness for binding NBS DNA” value was 0.319.
Consider FWPT, for which the “one-hybrid fitness for binding NBS DNA” value came to 0.321.
Turning to WFNS, the “one-hybrid fitness for binding NBS DNA” value is not above 0.2.
For GESV the value was not above 0.2; for NVQR, not above 0.2.
The same measure for RMFS: 0.221; for WCPM: not above 0.2.
For TKFG the value was not above 0.2; for VLCT, not above 0.2.
For the variant QYQG, the “one-hybrid fitness for binding NBS DNA” value was not above 0.2.
The same measure for PSVD: not above 0.2; for PMQL: not above 0.2.
LAAI: the “one-hybrid fitness for binding NBS DNA” value was not above 0.2.
For GQIR the value was not above 0.2.
The same measure for PRSE: not above 0.2; for VLTL: not above 0.2.
On to NLMF, for which the “one-hybrid fitness for binding NBS DNA” value is not above 0.2.
The same measure for TRIA: not above 0.2; for NTAN: not above 0.2; for PDVT: not above 0.2.
With RNEL, the “one-hybrid fitness for binding NBS DNA” value is not above 0.2.
As for CVGA, the “one-hybrid fitness for binding NBS DNA” value was not above 0.2.
The same measure for MVYK: not above 0.2; for QLDK: not above 0.2; for TALG: not above 0.2.
The same measure for VMKG: not above 0.2; for EFIV: not above 0.2.
Turning to QQKH, the “one-hybrid fitness for binding NBS DNA” value is 0.657.
For SKSS the value was not above 0.2; for KSPS, not above 0.2.
On to LSEW, for which the “one-hybrid fitness for binding NBS DNA” value was not above 0.2.
Take SLNH: the “one-hybrid fitness for binding NBS DNA” value was not above 0.2.
For LRKA the value was not above 0.2; for ACEG, not above 0.2; for HRLA, not above 0.2.
For PCRR the value was not above 0.2.
The same measure for NCNP: not above 0.2; for DPTS: not above 0.2; for MKSS: not above 0.2.
As to NRNT, the “one-hybrid fitness for binding NBS DNA” value is not above 0.2.
The same measure for ELLH: not above 0.2; for PQAC: not above 0.2.
The same measure for HMPM: not above 0.2.
For NKSS the value was not above 0.2; for HAPE, not above 0.2; for VWGC, not above 0.2.
In the case of QTKP, the “one-hybrid fitness for binding NBS DNA” value was 0.41.
STNR: the “one-hybrid fitness for binding NBS DNA” value is not above 0.2.
For TFCS the value was not above 0.2.
For VFGC the value was not above 0.2.
For GVQW the value was not above 0.2; for WVTK, not above 0.2; for TKRE, not above 0.2.
Take MNDG: the “one-hybrid fitness for binding NBS DNA” value is not above 0.2.
For APWT the value was not above 0.2.
The same measure for CAIN: not above 0.2; for GRSF: not above 0.2; for QFAD: not above 0.2.
For KHHC the value was not above 0.2.
For the variant WMNL, the “one-hybrid fitness for binding NBS DNA” value is not above 0.2.
The same measure for PFAM: not above 0.2; for DALY: not above 0.2; for DPEP: not above 0.2.
The same measure for VMSV: not above 0.2.
The same measure for RYYC: not above 0.2; for QQTT: 0.464; for GGCW: not above 0.2.
Regarding CVMG, the “one-hybrid fitness for binding NBS DNA” value is not above 0.2.
For WRRR the value was 0.237.
The same measure for QERN: not above 0.2; for RVEF: not above 0.2.
For NFVR the value was not above 0.2; for CRQS, not above 0.2.
Turning to APSR, the “one-hybrid fitness for binding NBS DNA” value was not above 0.2.
For PMNV the value was not above 0.2; for KCSS, not above 0.2.
For ANRW the value was not above 0.2; for LTPV, not above 0.2.
Regarding LDDS, the “one-hybrid fitness for binding NBS DNA” value is not above 0.2.
For QVTL the value was not above 0.2; for CATT, not above 0.2.
Turning to LLLA, the “one-hybrid fitness for binding NBS DNA” value was not above 0.2.
The same measure for GTRS: not above 0.2.
For GFQC the value was not above 0.2; for QNLC, not above 0.2.
Consider FACG, for which the “one-hybrid fitness for binding NBS DNA” value is not above 0.2.
The same measure for RYCI: not above 0.2; for KWTT: not above 0.2; for TLVC: not above 0.2.
For MDLK the value was not above 0.2.
As for QNIM, the “one-hybrid fitness for binding NBS DNA” value was not above 0.2.
For TGEK the value was not above 0.2.
The same measure for KPLW: not above 0.2; for DLDE: not above 0.2; for ACIV: not above 0.2.
The same measure for DTES: not above 0.2; for TMFG: not above 0.2; for CAYC: not above 0.2.
On to KPFS, for which the “one-hybrid fitness for binding NBS DNA” value was not above 0.2.
With AMGS, the “one-hybrid fitness for binding NBS DNA” value was not above 0.2.
The same measure for CETY: not above 0.2.
NSYR: the “one-hybrid fitness for binding NBS DNA” value was not above 0.2.
For TWFR the value was not above 0.2; for CWTR, not above 0.2.
The same measure for GCHV: not above 0.2; for IDHG: not above 0.2; for HGLA: not above 0.2.
The same measure for RHTE: not above 0.2; for APRG: not above 0.2; for TGNL: not above 0.2.
For AAPS, the “one-hybrid fitness for binding NBS DNA” value is not above 0.2.
For TLSY the value was not above 0.2.
Consider HCHS, for which the “one-hybrid fitness for binding NBS DNA” value is not above 0.2.
The same measure for SPHE: not above 0.2; for TEID: not above 0.2.
For CPHW the value was not above 0.2; for LARP, not above 0.2; for APFG, not above 0.2.
The same measure for RHQF: not above 0.2; for PTLH: not above 0.2; for LYSP: not above 0.2.
In the case of NRRK, the “one-hybrid fitness for binding NBS DNA” value is not above 0.2.
The same measure for IYGR: not above 0.2.
The same measure for LQRC: not above 0.2.
For the variant VVYC, the “one-hybrid fitness for binding NBS DNA” value is not above 0.2.
For TPMC the value was not above 0.2.
For RDNN the value was not above 0.2; for ISQC, not above 0.2.
For QILK the value was not above 0.2; for VRCR, 0.246.
Turning to QNKF, the “one-hybrid fitness for binding NBS DNA” value was not above 0.2.
For RSQM the value was not above 0.2.
The same measure for TTPW: not above 0.2; for KARA: not above 0.2; for AIKF: not above 0.2.
For RMHQ the value was not above 0.2; for NSPY, not above 0.2; for GRLK, not above 0.2.
Regarding RIII, the “one-hybrid fitness for binding NBS DNA” value is not above 0.2.
The same measure for TKWI: not above 0.2; for CWIT: not above 0.2; for SDTT: not above 0.2.
For AETS the value was not above 0.2; for ELGS, not above 0.2; for RHAY, not above 0.2.
The same measure for DKYR: not above 0.2.
As to DKYG, the “one-hybrid fitness for binding NBS DNA” value is not above 0.2.
For REMR the value was not above 0.2.
Regarding ARQD, the “one-hybrid fitness for binding NBS DNA” value was not above 0.2.
For PNHV the value was not above 0.2; for SITS, not above 0.2.
The same measure for RDCG: not above 0.2.
For LFRS the value was not above 0.2; for KALS, not above 0.2; for HRMD, not above 0.2.
Consider GAKA, for which the “one-hybrid fitness for binding NBS DNA” value is not above 0.2.
For FDSH the value was not above 0.2.
With LYGF, the “one-hybrid fitness for binding NBS DNA” value is not above 0.2.
